The full ranking holds about 33,000 sequences; the median of “E-score (-0.5 to 0.5)” is about -0.021, and the highest 2% start at about 0.32. The list shows a part of the results.
These sequences were tested against T1, Zap1 (UniProt P47043) (assay: PBM E-score (8-mer binding enrichment) (E-score (-0.5 to 0.5)); higher = stronger / more preferred TF binding; most listed sequences are background and not binding sites). Settings: protein concentration: 200 nM; construct: GST-full length.
T1 sequence: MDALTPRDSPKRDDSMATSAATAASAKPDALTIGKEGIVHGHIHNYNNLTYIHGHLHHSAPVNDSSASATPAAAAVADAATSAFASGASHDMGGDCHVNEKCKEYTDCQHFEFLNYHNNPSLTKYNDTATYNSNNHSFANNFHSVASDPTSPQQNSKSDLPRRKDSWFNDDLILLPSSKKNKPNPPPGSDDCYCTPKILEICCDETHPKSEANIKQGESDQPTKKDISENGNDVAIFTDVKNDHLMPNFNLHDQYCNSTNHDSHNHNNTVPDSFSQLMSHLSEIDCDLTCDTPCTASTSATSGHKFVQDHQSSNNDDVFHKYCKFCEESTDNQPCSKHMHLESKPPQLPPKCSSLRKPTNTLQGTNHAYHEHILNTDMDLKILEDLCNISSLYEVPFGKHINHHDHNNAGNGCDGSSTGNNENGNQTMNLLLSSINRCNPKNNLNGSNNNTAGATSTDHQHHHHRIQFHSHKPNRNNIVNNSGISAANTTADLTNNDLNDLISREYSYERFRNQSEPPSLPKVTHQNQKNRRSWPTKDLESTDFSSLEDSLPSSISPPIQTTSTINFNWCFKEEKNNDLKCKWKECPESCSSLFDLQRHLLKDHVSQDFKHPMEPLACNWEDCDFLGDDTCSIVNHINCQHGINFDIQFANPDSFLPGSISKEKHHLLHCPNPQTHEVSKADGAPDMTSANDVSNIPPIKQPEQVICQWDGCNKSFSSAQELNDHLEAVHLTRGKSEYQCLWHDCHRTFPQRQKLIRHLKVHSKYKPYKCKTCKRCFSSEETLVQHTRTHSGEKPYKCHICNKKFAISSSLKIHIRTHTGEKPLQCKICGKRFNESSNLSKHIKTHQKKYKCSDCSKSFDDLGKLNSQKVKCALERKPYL
How it was run: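 GST-tagged yeast TFs (full-length or DNA-binding domain) were made by PURExpress in vitro transcription/translation and applied at about 100-200 nM to universal all-10-mer Agilent arrays. The arrays were made double-stranded by primer extension, on fresh or once-stripped slides. Bound protein was detected with fluorescent anti-GST, and scans were normalised with masliner. Each ungapped eight-base word, pooled with its reverse complement, received an E-score (modified Wilcoxon-Mann-Whitney statistic) from the Universal PBM Analysis Suite.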

| Sequence | PBM E-score |
| --- | --- |
| GTGACCAC | 0.344 |
| CTACCATA | 0.2 |
| CCTAGACC | -0.0621 |
| TAGCAAAA | 0.0555 |
| CGTGTAAA | -0.127 |
| AAAAGCTC | -0.194 |
| CTATAGAG | -0.0425 |
| CCTTGGTC | 0.0233 |
| CGCCACGC | -0.12 |
| CTAGTCTA | -0.0327 |
| TCCCTGAA | -0.136 |
| AAATTCGT | 0.107 |
| AACTCTAT | -0.138 |
| ACTACTAA | 0.0945 |
| CCCGGTAA | 0.204 |
| AATCTTTA | 0.0848 |
| ACCAGTTG | 0.122 |
| CGATTGCC | -0.325 |
| CGCCGCAA | -0.00982 |
| AGTGCACG | -0.151 |
| CAATATGC | -0.126 |
| AGGTTTTA | 0.212 |
| ATCGCGTC | -0.135 |
| CGCTCCTA | -0.155 |
| ACTTGACT | -0.056 |
| AGCAAAAG | -0.146 |
| CCTAGAAA | 0.174 |

| Sequence | PBM E-score |
| --- | --- |
| CTCGATAC | 0.18 |
| AAGTGTAT | -0.245 |
| CCTATCAA | 0.0212 |
| CAGCGGCG | -0.0372 |
| TACTTAAA | 0.066 |
| CGCAGGAA | -0.246 |
| TGTAAAAA | 0.253 |
| AACGCTGA | -0.155 |
| CAGGATGA | -0.152 |
| AACTAGCT | -0.114 |
| ATGCGTTC | -0.0993 |
| ATCGGAGA | -0.0774 |
| GAACGGCC | 0.0134 |
| AGTGCTAG | -0.104 |
| ACTACCCC | 0.215 |
| GTGAACAA | 0.202 |
| AATCTGTC | -0.13 |
| ACGATACA | -0.0802 |
| ACGCTTGC | -0.192 |
| AAAGACGC | 0.013 |
| AAACAGGG | 0.122 |
| AAGTCCTA | -0.0865 |
| ACCCCGAA | 0.384 |
| TATCTCCA | 0.0267 |
| CTATACAC | -0.224 |
| CTACTTGC | -0.17 |
| AGAGGACG | -0.0182 |

| Sequence | PBM E-score |
| --- | --- |
| CCTGCCAA | -0.219 |
| GGAGTAAA | 0.214 |
| ATCGCGCC | 0.0143 |
| AACAGCTT | -0.219 |
| GGTTAGGA | 0.296 |
| AACCATAT | 0.232 |
| CGGAGCGA | -0.0718 |
| CAAGTGGC | 0.0655 |
| GCCAAGAA | -0.0936 |
| TCTCAAAA | 0.169 |
| ATTCGGGG | 0.13 |
| ATAAGCTG | -0.0738 |
| CACCTGAC | 0.0764 |
| CGGCTCCC | -0.0521 |
| CGCGCTTC | -0.0795 |
| ACTCAGAG | 0.11 |
| AGACTCAT | -0.125 |
| TAGACATA | 0.0776 |
| CGCACAAA | 0.01 |
| ACGAACCT | 0.164 |
| ATTCGGAA | 0.0178 |
| CTAGTATA | -0.0945 |
| AGGGTACT | 0.441 |
| ATCCAGCG | -0.0984 |
| GCACCGTA | 0.0526 |

Source: the supplement of paper PMC3334620
